# Test results published in article PMC4336329 (PLoS ONE, 2015).
# Out of some 310,000 compounds screened, about 14,000 (4.5%) showed an effect of 50% or more. Effects have a minus sign here. The list shows a part of the results. Where a SMILES comes first, the peptide text is derived from it. The star is where a group is joined. Boc = CC(C)(C)OC(=O)*
# Target: human ether-à-go-go-related gene (hERG) potassium channel (human, UniProt Q12809)
# Assay: primary screen, population patch clamp on CHO cells stably expressing hERG
# 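Also: peak tail current of the secondary pulse compared with the same well before compound.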
# Sequence of human ether-à-go-go-related gene (hERG) potassium channel (Q12809 whole entry, looked up): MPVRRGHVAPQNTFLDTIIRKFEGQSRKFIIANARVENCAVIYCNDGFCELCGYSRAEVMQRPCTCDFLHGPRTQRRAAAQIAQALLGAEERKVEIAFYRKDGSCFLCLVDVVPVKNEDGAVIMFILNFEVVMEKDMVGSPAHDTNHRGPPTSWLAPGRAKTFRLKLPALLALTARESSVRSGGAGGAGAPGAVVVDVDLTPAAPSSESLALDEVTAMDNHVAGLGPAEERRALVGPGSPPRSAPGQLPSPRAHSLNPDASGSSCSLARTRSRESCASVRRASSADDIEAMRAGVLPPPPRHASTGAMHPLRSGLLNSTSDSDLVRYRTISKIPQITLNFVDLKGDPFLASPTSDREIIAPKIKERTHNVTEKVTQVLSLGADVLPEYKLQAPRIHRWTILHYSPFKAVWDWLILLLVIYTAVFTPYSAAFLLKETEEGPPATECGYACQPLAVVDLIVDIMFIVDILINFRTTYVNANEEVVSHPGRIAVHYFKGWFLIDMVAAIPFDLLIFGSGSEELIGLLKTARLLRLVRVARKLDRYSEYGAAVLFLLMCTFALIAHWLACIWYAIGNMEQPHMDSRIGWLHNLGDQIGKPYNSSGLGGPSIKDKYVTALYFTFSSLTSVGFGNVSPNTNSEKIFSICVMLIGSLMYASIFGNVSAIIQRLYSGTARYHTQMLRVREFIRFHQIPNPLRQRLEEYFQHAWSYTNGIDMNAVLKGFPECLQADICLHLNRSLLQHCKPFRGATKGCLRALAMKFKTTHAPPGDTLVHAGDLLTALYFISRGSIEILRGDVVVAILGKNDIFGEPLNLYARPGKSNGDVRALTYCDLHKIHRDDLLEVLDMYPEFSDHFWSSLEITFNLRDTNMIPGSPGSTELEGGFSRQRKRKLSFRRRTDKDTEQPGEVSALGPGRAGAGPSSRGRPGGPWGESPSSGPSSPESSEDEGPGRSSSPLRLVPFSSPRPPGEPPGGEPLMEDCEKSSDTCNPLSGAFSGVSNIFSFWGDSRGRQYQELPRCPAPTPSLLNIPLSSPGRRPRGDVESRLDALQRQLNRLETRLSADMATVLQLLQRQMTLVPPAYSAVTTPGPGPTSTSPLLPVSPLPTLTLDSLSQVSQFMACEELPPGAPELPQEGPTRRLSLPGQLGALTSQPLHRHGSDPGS
row,Structure (SMILES),"hERG current change (%, negative = inhibition) at 10uM [%]"
1,O=C(c1cnn2c(C(F)(F)F)cc(-c3ccc4c(c3)OCO4)nc12)N1CCCCC1,1.33
2,CC(C)C1N(C(=O)N2CCOCC2)CCN1S(=O)(=O)c1ccccc1 (stereo not drawn),6.8
3,O=C(c1ccc(CN2CCc3ccccc3C2)cc1)N1CCN(c2ccccc2)CC1,-46.3
4,COc1cc(/C=N\Nc2nncn2N)ccc1OC(C)=O.Cl,17.5
5,NS(=O)(=O)c1cccc(NC(=O)CN2CCC(Cc3ccccc3)CC2)c1,-11.2
6,COC(=O)c1c([N+](=O)[O-])c(OC)c(OC)c(OC)c1[N+](=O)[O-],16.3
7,COc1cc(OC)c(NC(=O)Cc2ccc(OC)c(S(=O)(=O)N3CCOCC3)c2)cc1Cl,1.06
8,CCCCCCO,26.4
9,C[C@]12C=CC(=O)C=C1CC[C@@H]1C2=CC[C@]2(C)[C@@H](C(=O)CN3CCN(c4cc(N5CCCC5)nc(N5CCCC5)n4)CC3)CC[C@@H]12.O=C(O)/C=C\C(=O)O,-10.8
10,COCCN(C(=O)c1cccc(OC)c1)c1nnc(-c2ccncc2)s1,-14.1
11,CCCCNC(=O)c1ccc(NS(=O)(=O)c2ccc3[nH]c(=O)[nH]c3c2)cc1,24.4
12,S=c1[nH]nc(-c2ccc3ccccc3n2)n1-c1ccc2ncccc2c1,12.3
13,CC(C)OC1CCCC(O)C1CC(=O)O (stereo not drawn),9.79
14,O=C(NNc1cccc(Cl)n1)C1CC1,37.4
15,CC(C)COc1ccc(-c2nnc(-c3ccco3)o2)cc1,-10.6
16,CCc1nc(C)cn1S(=O)(=O)c1cc(C)c(OC)cc1C,-3.83
17,CC(NCC#Cc1ccccc1)C(O)c1ccccc1.Cl (stereo not drawn),-1.67
18,CCCn1c(=O)c(/C(N)=N/O)nn(-c2cccc(C(F)(F)F)c2)c1=O,3.48
19,CCNC(=S)SCCOc1ccc(C)cc1,-7.02
20,Cc1cccc(/C(N)=N/OC(=O)N2CCOCC2)c1,-13.8
21,CCOC(=O)c1[nH]c(C)c(C(=O)OCC(=O)Nc2sc3c(c2C#N)CCCCC3)c1C,11.5
22,COCCNC(=O)c1ccccc1NC(=O)Cc1ccccc1[N+](=O)[O-],18.3
23,O=C(CSc1nc(-c2cccs2)cc(C(F)(F)F)n1)Nc1cc(OCC(F)(F)C(F)F)cc([N+](=O)[O-])c1,24.6

row,Structure (SMILES),"hERG current change (%, negative = inhibition) at 10uM [%]"
1,COc1ccc(C)cc1S(=O)(=O)N(CC(=O)N1CCCC1)c1ccccc1,-37.9
2,S=C(Nc1ccc2c(c1)OCO2)N1CCCC1,23.3
3,Nc1c(-c2ccccc2)cnn1-c1cccc(Cl)c1,-12.3
4,COc1ccc(C(=O)Nc2ccc3c(c2)nc(CN2CCCC2)n3C)cc1,-44.4
5,CCN(CC)S(=O)(=O)c1cccc(C(=O)OCc2cc(=O)n3nc(C)sc3n2)c1,-47.6
6,CSc1nc2ccccc2n1CC(=O)Nc1cc(C(F)(F)F)ccc1N1CCOCC1,-21.2
7,COc1ccccc1-n1cnc2cc(C(=O)N3CCOCC3)ccc21,5.33
8,COc1cccc(/C=C2\SC(=S)NC2=O)c1OS(=O)(=O)c1ccc(NC(C)=O)cc1,15.6
9,Nc1ccc(-c2n[nH]c(=O)c3ccccc23)cc1N,-2.76
10,Cc1cnc(N)c2c(=O)oc3ccccc3c12,7.9
11,CN(C1=C(N2CCOCC2)C(=O)c2ccccc2C1=O)c1ccccc1,-14.9
12,Cc1ccc(-c2sc(C)nc2CC(=O)O)cc1,16
13,COC(=O)C(CC(C)C)NC(=O)C(Cc1ccccc1)NC(=O)C1CCCN1C(=O)OC(C)(C)C (stereo not drawn) (Boc-Pro-Phe-Leu-OMe; configuration not given here),54.5
14,c1ccc(-c2csc(N3CCN(c4ccccn4)CC3)n2)cc1,-1.09
15,COc1ccc(NC(=O)COC(=O)c2ccc(OCc3ccccc3Cl)c(OC)c2)c(OC)c1,3.47
16,Cn1c(N)c(S(=O)(=O)N2CCN(c3ccccc3)CC2)c(=O)n(C)c1=O,-0.0444
17,Cc1cc(C)nc(N(C#N)CN2C(=O)c3ccccc3C2=O)n1,8.29
18,OC(COCc1ccccc1)CN1CCN(c2ccccc2)CC1 (stereo not drawn),-45.2
19,COc1ccc2c(c1)C=C(CN1CCC(CO)(CCc3ccccc3)CC1)CO2,-77.1
20,CCCN1CCN(C(=O)CCc2nnc3ccc(N4CCN(c5cccc(OC)c5)CC4)nn23)CC1,-54.9
21,COC(=O)c1ccc(NC(=O)C2CCCN2S(=O)(=O)c2ccc(C)cc2)cc1 (stereo not drawn),-2.38
22,Cc1nnc(NC(=O)C2CC(=O)N(C(C)c3ccccc3)C2)s1 (stereo not drawn),14.3
